Results: PMC4336329 (PLoS ONE, 2015)
Screen size: about 310,000 compounds; about 14,000 (4.5%) showed an effect of 50% or more. Effects have a minus sign here. This is one part of the list.

Each compound was assayed against human ether-à-go-go-related gene (hERG) potassium channel (human, UniProt Q12809) (assay: primary screen, population patch clamp on CHO cells stably expressing hERG).
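Note: peak tail current of the secondary pulse compared with the same well before compound.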

Chain of human ether-à-go-go-related gene (hERG) potassium channel (Q12809 whole entry, looked up): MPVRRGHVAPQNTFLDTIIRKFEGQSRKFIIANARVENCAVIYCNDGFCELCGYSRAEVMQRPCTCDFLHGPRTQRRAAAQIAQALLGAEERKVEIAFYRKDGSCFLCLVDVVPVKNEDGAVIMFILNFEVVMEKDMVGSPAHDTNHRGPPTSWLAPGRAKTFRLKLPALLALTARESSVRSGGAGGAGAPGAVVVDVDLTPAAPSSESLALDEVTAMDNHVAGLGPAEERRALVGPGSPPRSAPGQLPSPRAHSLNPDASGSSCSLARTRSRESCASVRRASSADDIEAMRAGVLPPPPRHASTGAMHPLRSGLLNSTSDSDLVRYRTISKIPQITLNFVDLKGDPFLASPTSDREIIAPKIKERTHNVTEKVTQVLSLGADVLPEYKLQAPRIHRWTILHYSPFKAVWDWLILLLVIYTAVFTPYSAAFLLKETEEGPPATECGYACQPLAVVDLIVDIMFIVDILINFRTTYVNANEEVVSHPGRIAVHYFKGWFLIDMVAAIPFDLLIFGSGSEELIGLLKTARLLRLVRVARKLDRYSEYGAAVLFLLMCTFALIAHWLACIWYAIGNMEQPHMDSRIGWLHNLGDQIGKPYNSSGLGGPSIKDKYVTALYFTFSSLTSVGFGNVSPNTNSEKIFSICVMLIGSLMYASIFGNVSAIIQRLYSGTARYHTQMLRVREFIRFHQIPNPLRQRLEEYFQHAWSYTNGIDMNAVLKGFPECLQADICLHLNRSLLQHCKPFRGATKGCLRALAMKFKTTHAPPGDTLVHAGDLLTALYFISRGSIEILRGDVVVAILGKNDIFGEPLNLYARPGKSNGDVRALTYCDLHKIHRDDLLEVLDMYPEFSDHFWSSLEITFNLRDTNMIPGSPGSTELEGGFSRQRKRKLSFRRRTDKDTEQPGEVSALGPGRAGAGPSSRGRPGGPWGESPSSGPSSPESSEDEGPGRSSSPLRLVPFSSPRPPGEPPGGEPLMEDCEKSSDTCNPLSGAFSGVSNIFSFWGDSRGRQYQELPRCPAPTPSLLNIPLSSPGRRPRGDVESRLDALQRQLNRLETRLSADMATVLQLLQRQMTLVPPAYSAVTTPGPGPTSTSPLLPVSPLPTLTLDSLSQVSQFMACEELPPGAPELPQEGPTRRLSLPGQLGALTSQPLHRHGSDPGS

| SMILES | hERG current change (%, negative = inhibition) at 10uM |
| --- | --- |
| Cc1cc(NC(=O)CC23CC4CC(C2)CC(CC(=O)Nc2cc(C)on2)(C4)C3)no1 | 3.02% |
| CCOC(=O)N1CCC(NC(=O)c2ccc(NC(=O)C3CCCO3)cc2)CC1 (centres unmarked) | 0.264% |
| CCC(C)(C)NC(=O)C(c1ccc(OC)cc1)N(Cc1ccco1)C(=O)CCC(=O)Nc1cc(C)on1 (centres unmarked) | -2.21% |
| COc1ccc(Nc2nc(Cl)c(C=O)s2)cc1 | 17.1% |
| CC(C)=NOc1nc(N2CCOCC2)nc(N2CCOCC2)n1 | 8.33% |
| O=C(O)C1CCN(S(=O)(=O)c2cccc3nsnc23)CC1 | 6.45% |
| O=C(NN=C1CCCCC1)c1ccccc1-n1cccc1 | -5.82% |
| CC(=O)c1cccc(Nc2c([N+](=O)[O-])c(=O)oc3ccccc23)c1 | 12.6% |
| CC(NC(=O)Cc1ccccc1)c1ccccc1 (centres unmarked) | 3.47% |
| O=C(CSc1nnc(-c2cccs2)o1)NCc1ccco1 | -0.74% |
| CCOc1cccc(-c2nnc(SCC(=O)Nc3ccc(OC)c(OC)c3)n2N)c1 | -3.31% |
| Cn1c(=O)c2c(nc(CN3CCN(c4ccccc4F)CC3)n2CCN2CCOCC2)n(C)c1=O | -10.9% |
| CCOC(=O)CC1COc2ccccc2N1C(=O)c1ccc(F)cc1 (centres unmarked) | -3.15% |
| CCn1cc(/C=C(\NC(=O)c2ccc(OC)cc2)C(=O)N2CCOCC2)c2ccccc21 | -3.42% |
| COc1ccc(/C=C(/NC(=O)c2ccco2)C(=O)N2CCCCCC2)cc1OC | -7.39% |
| CC1(C(=O)OCC(=O)Nc2nc(-c3ccc(F)c(F)c3)cs2)CC1(Cl)Cl (centres unmarked) | 2.47% |
| COc1ccc(CCNC(=O)CN(c2ccc(OC)cc2)S(C)(=O)=O)cc1 | 37.3% |
| Cc1ccc2nc(SCC(=O)N3CCCC3)nc(=O)n2c1 | -0.651% |
| Cc1cc(C)c(S(=O)(=O)Nc2ccccc2-c2ccccc2)c(C)c1 | 6.6% |
| COc1ccc2c(c1)c1ccccc1n2C | 11% |
| Cc1ncc(CN2CCC(CO)(CCOc3ccccc3)CC2)s1 | -70.1% |
| O=C(CCc1nc2sc3c(c2c(=O)[nH]1)CCCC3)NCCc1ccc(F)cc1 | 3.25% |
| C=CCn1c(=O)c2c(nc3n2CCN3c2cccc(Cl)c2C)n(C)c1=O | -15% |

| SMILES | hERG current change (%, negative = inhibition) at 10uM |
| --- | --- |
| O=C(CSc1ccc2ccccc2n1)c1ccc2c(c1)OCO2 | -11.6% |
| COc1ccccc1CNC(=O)C1CCCN(S(=O)(=O)c2cnc[nH]2)C1 (centres unmarked) | 1.48% |
| CCC/C(O)=C1\C(=O)CC(C)(C)CC1=Nc1ccc(OC)cc1 | -8.55% |
| COc1ccc(-n2c(SCC(=O)NCC3CCCO3)nc3ccccc32)cc1 (centres unmarked) | -17.7% |
| O=C(CCn1c(=O)oc2ccc(Cl)cc21)N1CCN(Cc2ccccc2)CC1 | -35.8% |
| Cc1ccc(C(=O)NC(=O)OCCn2c(C)cnc2[N+](=O)[O-])cc1 | 4.69% |
| Cc1cc(C)n(-c2ccnc3cc(Cl)ccc23)n1 | 13.4% |
| COc1ccc(CN(C#N)c2nc(C)cc(C)n2)cc1 | 14.1% |
| NS(=O)(=O)c1cc(C(=O)OCCNC(=O)c2ccccc2)c(Cl)cc1Cl | -2.33% |
| CC(C)(C)c1ccccc1NC(=O)NC1CCN(Cc2c(F)cccc2Cl)CC1 | 6.82% |
| COc1ccccc1C(=O)Oc1ccc(C(C)(C)C)cc1 | -6.17% |
| CC12CCC(C(=O)NCc3ccccc3Cl)(OC1=O)C2(C)C (centres unmarked) | -6.52% |
| O=C1C2C(c3ccccc3)C=CC(c3ccccc3)C2C(=O)N1c1ccncc1 (centres unmarked) | 6.13% |
| COc1ccc(-c2csc(NC(=O)Cc3ccccc3F)n2)c(OC)c1 | 28.2% |
| CC(=O)[C@H]1[C@H](c2cccc(Cl)c2)C(C#N)(C#N)[C@@H]2c3ccccc3C=CN21 | 12.8% |
| O=C(Cc1ccc(Cl)cc1)Nc1ccccn1 | 12.4% |
| COc1ccc(CC2(CO)CCN(Cc3cccc4nccnc34)CC2)cc1 | -70.9% |
| Cc1ccc(OCCCC(=O)NC2CCCCC2)cc1 | 7.17% |
| O=C(O)CC(NC(=O)c1cccc([N+](=O)[O-])c1)c1ccc2c(c1)OCO2 (centres unmarked) | 18.1% |
| CCCCCCCCNC(=O)CC(NS(=O)(=O)c1ccc(NC(C)=O)cc1)C(C)C (centres unmarked) | 5.32% |
| CC1CCC(=NNC(=O)Cc2cccn2C)CC1 (centres unmarked) | 3.51% |
| Nc1c(S(=O)(=O)c2cc(Cl)ccc2Cl)c2nc3ccccc3nc2n1CCN1CCOCC1 | -15.3% |
| CCOc1ccc(CCNS(=O)(=O)c2c(C)n[nH]c2C)cc1OCC | 3.92% |

| SMILES | hERG current change (%, negative = inhibition) at 10uM |
| --- | --- |
| COc1ccc(NC(=O)C2CCN(C(=O)Cc3ccccc3)CC2)cc1OC | 17.1% |
| CC1CCCN(CCCNC(=O)c2cn(C)c3ccc(S(=O)(=O)N(C)C4CCCCC4)cc3c2=O)C1 (centres unmarked) | -71.4% |
| C#CC(C)(C)NC(=O)CSc1nc2c(c(=O)n(C)c(=O)n2C)n1CCCC | -9.58% |
| Cc1cccc(NC(=O)c2cc(S(=O)(=O)N3CCc4ccccc43)cn2C)c1C | 6.95% |
| Cc1nc2sc(C(c3cccs3)N3CCC(C(N)=O)CC3)c(O)n2n1 (centres unmarked) | 22.1% |
| CN(Cc1ccccc1)C(=O)N[C@@H](Cc1ccccc1)C(=O)O | -1.29% |
| CCC(=O)N1CCc2cc(S(=O)(=O)CCC(=O)Nc3ccc(C(C)=O)cc3)ccc21 | -16.5% |
| COc1ccc(S(=O)(=O)N2CCOC23CCN(S(=O)(=O)c2ccc([N+](=O)[O-])cc2)CC3)cc1 | -62% |
| CCn1cc(C(=O)OCC(=O)Nc2c(C)cccc2C)c(=O)c2ccc(C)nc21 | 18.2% |
| CCOC(=O)c1sc(NC(=O)c2ccccc2F)c(C(N)=O)c1C | 6.79% |
| COc1ccc(-c2cc(=O)c3c(O)cc(O[C@@H]4O[C@H](CO[C@@H]5O[C@@H](C)[C@H](O)[C@@H](O)[C@H]5O)[C@@H](O)[C@H](O)[C@H]4O)cc3o2)cc1O | 28.4% |
| O=C(CSc1nnc(-c2ccc(O)cc2)o1)Nc1ccccc1 | -15.6% |
| O=c1cc(C(F)(F)F)nc(SCc2cccnc2)[nH]1 | 16.9% |
| CC1=C(C)CC(C(=O)NCc2ccc3c(c2)OCO3)C(C(=O)O)C1 (centres unmarked) | 5.59% |
| CC1=NC(C)Cc2ccccc21.Cl (centres unmarked) | 25.5% |
| CC(NC(=O)COC(=O)CCc1nc(=O)c2ccccc2n1C)c1ccccc1 (centres unmarked) | 18.7% |
| C=CCNc1cc(C)oc(=O)c1C(=O)CCC | -1.54% |
| CCOc1ccc(N2C(=O)CC(NC3CCN(C(=O)c4ccc(F)cc4)CC3)C2=O)cc1 (centres unmarked) | -27.1% |
| CN1CCC(=O)N([C@H](CSc2ccc(Br)cc2)Cc2ccccc2)CC1 | -64.8% |
| CCCNC(=S)N1CCN(c2nc(C)nc3sc4c(c23)CCCC4)CC1 | -31.5% |
| CN(Cc1ccccc1)C(=O)c1nc[nH]c1C(=O)N(C)Cc1ccccc1 | 1.69% |
| Cc1ccc(NC(=O)CCC(=O)c2cccs2)cc1 | -1.29% |
| Cc1cc(Oc2ccc(=O)[nH]n2)nc(Cl)n1 | 5.09% |

| SMILES | hERG current change (%, negative = inhibition) at 10uM |
| --- | --- |
| O=C(CNC(=S)N(CCCN1CCOCC1)Cc1cccs1)NCCCN1CCOCC1 | 15.1% |
| O=C(CSc1nnc(CNC(=O)c2c(F)cccc2F)o1)Nc1ccc2c(c1)OCO2 | 16.7% |
| Cn1c(N)c(S(=O)(=O)N2CCN(Cc3ccccc3)CC2)c(=O)n(C)c1=O | 4.53% |
| CCN(CC)CCNC(=O)C12CC3CC(CC(C3)C1)C2.Cl | -17.1% |
| CCN(CC(=O)Nc1c(F)cccc1F)C(=O)/C=C/c1ccc2ccccc2n1 | -16.4% |
| COc1ccccc1C(=O)NC(=O)COC(=O)/C(=C/c1ccccc1)NC(C)=O | -35.7% |
| Cc1ccc(CN2CCN(C3CCOCC3)CC2CCO)cc1 (centres unmarked) | -36.5% |
| O=c1c2ccccc2nnn1Cc1ccc(F)cc1 | 1.33% |
| c1ccc(-c2csc3ncn4nnnc4c23)cc1 | -20.9% |
| CC(C)(C)n1cnnc1Sc1ccc([N+](=O)[O-])cn1 | -17.8% |
| COc1cccc2c(=O)n(CC(=O)NC3CCCC3)ccc12 | 6.52% |
| Cc1cccc(NC(=O)Nc2ccc(Br)cc2)n1 | 18.4% |
| Cn1c(CNc2ccccc2)nc2ccccc21 | 4.27% |
| O=C(O)/C=C/c1ccc2c(c1)OCCO2 | -25% |
| O=c1oc2ccccc2cc1-c1nnc(-c2cccc(Br)c2)o1 | -9.78% |
| CCSc1nc(-c2ccc(OC)cc2)cc(-c2ccccc2)c1C#N | 5.37% |
| CCc1sc(C(=O)NCc2ccco2)cc1C | 10.3% |
| CCOC(=O)Cc1nnc(NC(=O)CSc2ccccc2)s1 | 7.53% |
| CC1CCN(c2nnc(N3CCC(C)CC3)c3ccccc23)CC1 | 6.92% |
| CSc1nc(N)c(C(=O)NC2CCCCC2)s1 | 13% |
